# From PubChem BioAssay AID1347073 (National Center for Advancing Translational Sciences (NCATS), 2019)
# The whole screen tested about 45,000 compounds, of which about 200 (0.44%) were called active. Inconclusive results (about 7%) are left out. The call rests on the fitted dose curve; in most records, active means well fitted activation curve with a large enough effect; inconclusive means small, poorly fitted or top-dose-only effect; inactive means no such curve, though single readings can be large or run the other way. Some of the results follow.
# Assay: qHTS of TDP-43 Inhibitors: NCGC Sytravon Library Screen; further: 0% is about no effect; nearly all actives have a fitted effect of over 55% in size
# Conditions: yeast TDP-43 toxicity rescue, BacTiter-Glo growth, 24 h; series mostly up to 46.1 µM; growth rescue (activation): at the top concentration
# Method in brief: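 TDP-43-expressing yeast, pregrown in raffinose, seeded at OD600 0.02 in galactose medium with compound for 24 hr at 30 deg C. Growth read by BacTiter-Glo luminescence, so rescue of toxicity appears as activation.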
row,SMILES,growth rescue (activation)
1,CN(C)S(=O)(=O)c1ccc(C(=O)NC(=O)CSc2nnnn2C)cc1,inactive: 17.3%
2,CC(C)C1N(C(=O)CN2CCCCC2)CCN1S(=O)(=O)c1ccccc1 (stereo unspecified),inactive: -0.544%
3,Cc1ccc(C(=O)Nc2ccc3c(c2)OCCO3)cc1S(=O)(=O)N1CCOCC1,inactive: -17.9%
4,CC(C)[C@H](NC(=O)c1ccco1)C(=O)Nc1ccc(OC(F)F)cc1,inactive: -10.5%
5,O=C(CNS(=O)(=O)c1ccccc1)N/N=C\c1ccc(Cl)cc1,inactive: 16.3%
6,COc1ccc(C(=O)O)cc1S(=O)(=O)NCCc1ccccn1,inactive: 29.4%
7,CCOC(=O)c1ccc(NC(=S)N(CCCN2CCN(CC)CC2)Cc2cccs2)cc1,inactive: -0.171%
8,CCc1ccc(-n2cc(-c3ccc(F)cc3)[n+]3c2SCCC3)cc1,inactive: -21%
9,O=C1CCCN2N=C(SCC(=O)Nc3cccc(Cl)c3)SC2=N1,inactive: -17.2%
10,CC(C)C(=O)Nc1ccc(S(=O)(=O)Nc2ccccn2)cc1,inactive: -4.55%
11,Cc1ccc(-c2nc(N)sc2CC(=O)OCC(=O)NCCC(C)C)cc1,inactive: -8.71%
12,CC(C)NC(=O)NC(=O)CN1C(=O)NC(Cc2c[nH]c3ccccc23)C1=O (stereo unspecified),inactive: -6.73%
13,CC1=C(C)C(OCCBr)N(c2cc(O)c(Cl)cc2F)C1=O (stereo unspecified),inactive: -11.8%
14,O=C(CCNC(=O)OCc1ccccc1)NC1CCCCCC1,inactive: 3.02%
15,O=C1CN(CC(=O)Nc2ccc(SC(F)F)cc2)CCN1,inactive: -16.3%
16,CCN(CC)CCCNC(=O)c1ccc(N2CCCCC2)c(NS(=O)(=O)c2ccc(C)cc2)c1,inactive: -1.89%
17,Cn1ncc(N=Cc2ccccc2O)c1C(=O)N1CCOCC1,inactive: 32.5%
18,O=C(Cc1ccc(Cl)cc1)Nc1ccccc1C(=O)N1CCCC1,inactive: -4.61%
19,CCCSc1ncc(Cl)c(C(=O)N(Cc2ccccc2)c2ccc(OC)cc2)n1,inactive: 18.2%
20,CN1CCN(c2nnc(-c3ccc(F)cc3)c3ccccc23)CC1,inactive: -2.04%
21,NC(=O)C1CCN(CC(=O)Nc2cc(Cl)ccc2Oc2ccccc2)CC1,inactive: -2.54%
22,CC1CCC2(CC1)NC(=O)N(Cc1cccc(C(F)(F)F)c1)C2=O (stereo unspecified),inactive: 16.2%

row,SMILES,growth rescue (activation)
1,CCCOC(=O)c1[nH]c2c(c1C)C(=O)CC(c1cccs1)C2 (stereo unspecified),inactive: 8.72%
2,COc1ccc(C(CNC(=O)Cc2c(F)cccc2Cl)N2CCCCC2)cc1 (stereo unspecified),inactive: 0.461%
3,COc1ccc(OCCSc2nc(-c3ccccc3)cc(=O)[nH]2)cc1,inactive: 4.55%
4,O=C(CN1CCCCC1)Nc1ccc(N2CCCCCC2)cc1,inactive: -2.19%
5,CC(NC(=O)Nc1ccc(O)cc1)(C(F)(F)F)C(F)(F)F,inactive: -6.37%
6,Cn1c(CC(=O)NNC(=O)c2ccc(Cl)nc2)nc2ccccc21,inactive: 18.4%
7,CC(=O)NCC(=O)OCC(=O)Nc1nc(-c2ccccc2)cs1,inactive: -4.48%
8,Cc1cccc(C(C(=O)NCc2ccc(F)cc2)N(C(=O)c2csnn2)C2CC2)c1 (stereo unspecified),inactive: 6.62%
9,CC(C)N1CCN(Cc2cn[nH]c2C2CCCCC2)CC1CCO (stereo unspecified),inactive: 18.5%
10,COc1ccc(CNC(=O)c2ccc(-c3cnn(C)c3)c3ccoc23)cc1OC,inactive: 25.8%
11,CCN(CC)c1ccc(/C=C(\C#N)C(=O)c2ccc(Br)cc2)cc1,inactive: 3.58%
12,O=C(NC1CCCC1)C(c1ccncc1)N(Cc1ccccc1F)C(=O)c1csnn1 (stereo unspecified),inactive: -4.78%
13,Cc1nn(-c2ccccc2)c(C)c1C(=O)OCC(O)=C(C#N)c1nc2ccccc2[nH]1,inactive: 8.39%
14,COc1ccc(NC(=O)C(Cc2cc(C)cc(C)c2)C(C)C(=O)O)cc1 (stereo unspecified),inactive: -14.7%
15,O=C(CCc1nnc(COc2ccccc2)o1)NCc1ccccc1,inactive: 4.24%
16,COCCNC(=O)C1CCCN(C(=O)c2cc(-c3cccs3)oc2C)CC1 (stereo unspecified),inactive: 4.33%
17,COc1cc(-c2noc(CCC(=O)NC3CCCCC3)n2)cc(OC)c1OC,inactive: -21.6%
18,NC(Cc1ccc(Cl)cc1)c1csc(NC(=O)Nc2ccccc2)n1 (stereo unspecified),inactive: 6.77%
19,Cn1cc([N+](=O)[O-])c(C(=O)NNC(=O)c2ccc([N+](=O)[O-])cc2Cl)n1,inactive: 10.5%
20,O=C(NC1CC1)C1CCN(c2ncccn2)CC1,inactive: -10.7%
21,Cc1ccc(S(=O)(=O)CCC(=O)Nc2nccs2)cc1,inactive: -22.4%
22,CC1(c2ccc3noc(-c4ccccc4)c3c2)OCCO1,inactive: 20.5%

row,SMILES,growth rescue (activation)
1,CC(=O)c1ccc(NC(=O)CCOc2cc(C)ccc2C)cc1,inactive: 27.3%
2,O=C(NC(c1ccccc1)c1ccccc1)c1cccc(S(=O)(=O)NCc2ccccc2)c1,inactive: 10.4%
3,COCCN(C(=O)COC(=O)/C=C/c1cccc(C(F)(F)F)c1)c1c(N)n(CC(C)C)c(=O)[nH]c1=O,inactive: 18.9%
4,CC(C)(CNC(=O)Cc1ccc(Cl)cc1Cl)N1CCCCC1,inactive: -3.07%
5,Fc1ccc(C2c3[nH]c4ccccc4c3CCN2Cc2ccoc2)cc1 (stereo unspecified),inactive: -0.103%
6,CC(Oc1ccc(Cl)cc1)c1ccn[nH]1 (stereo unspecified),inactive: 13.3%
7,CC(=O)c1cccc(NC(=S)N2CCN(CCN3C(=O)c4cccc5cccc(c45)C3=O)CC2)c1,inactive: 6.83%
8,COC(CNC(=O)c1ccc2c(c1)nc(C)n2-c1cccc(C)c1)OC,inactive: 0.854%
9,COc1ccccc1CN1CCNC(=O)C1CC(=O)O (stereo unspecified),inactive: -7.49%
10,COc1ccc(NC(=O)CCCc2nc3ccccc3c(=O)[nH]2)cc1Cl,inactive: 8.76%
11,COc1ccc(-n2cnnc2SC(C)C(=O)Nc2cccc([N+](=O)[O-])c2)cc1 (stereo unspecified),inactive: 12.7%
12,COc1ccc(/C=C(/NC(=O)c2ccco2)C(=O)Nc2cccc(C(=O)O)c2)cc1,inactive: 5.01%
13,COC(=O)c1c(NC(=O)/C=C/c2ccco2)sc2c1CCC2,inactive: 2.42%
14,COc1ccc(S(=O)(=O)Nc2ccccc2C(=O)N2CCOCC2)cc1OC,inactive: -11.2%
15,Cn1c(=O)c(=O)n(C)c2cc(C(=O)NCc3ccccc3Cl)ccc21,inactive: 4.83%
16,Cc1ccccc1Nc1nc(N)nc(COC(=O)c2c(C)noc2C)n1,inactive: 13.7%
17,CCCCN(CC)CCCNC(=O)c1cc2c(=O)n(CC)c3ccccc3c2s1,inactive: -10.7%
18,NS(=O)(=O)c1ccc(CCNC(=O)CNC(=O)c2ccc(F)cc2)cc1,inactive: 6.14%
19,COc1cccc(NC(=S)N2CCC(N(C)CC3CCCO3)CC2)c1 (stereo unspecified),inactive: 2.11%
20,COc1cc(COc2ccc(-c3nnco3)cc2)ccc1OC(F)F,inactive: 1.54%
21,Cc1ccc(-c2nnn(CC(=O)N(c3ccccc3)C(C(=O)NCC3CCCO3)c3ccc(F)cc3)n2)o1 (stereo unspecified),inactive: -13.5%
22,Cc1csc(NC(=O)Cn2nc(C)c([N+](=O)[O-])c2C)n1,inactive: 11%

row,SMILES,growth rescue (activation)
1,CCOc1ccc(N(C)S(=O)(=O)c2ccc(C)c(C(=O)N3CCN(Cc4ccc5c(c4)OCO5)CC3)c2)cc1,inactive: 5.77%
2,CCOC(=O)Cn1nc(NC(=O)c2ccc3c(c2)OCO3)cc1C,inactive: 6.56%
3,COc1ccc(CNC(=O)CSc2nnc(NC(=O)C3CC3)s2)cc1,inactive: -9.2%
4,CCOc1ccc(/C=N/NC(=O)C(OC)c2ccccc2)cc1 (stereo unspecified),inactive: 13.2%
5,COc1ccc(C(=O)NCC(=O)OCC(=O)N2N=C(c3ccc(Cl)cc3)CC2c2ccco2)cc1OC (stereo unspecified),inactive: 5.33%
6,Cc1ccc2[nH]cc(/C=C/c3cc[n+](C)cc3)c2c1,inactive: -8.05%
7,CS(=O)(=O)c1cccc(C(=O)OCC(=O)NC(=O)Nc2ccccc2F)c1,inactive: 9.57%
8,O=C(CCC1CCCCC1)NC1=NCCS1,inactive: -18.9%
9,CC(C)CCNc1ncnc2c1nnn2Cc1ccccc1,inactive: 18.8%
10,CCNC(=O)C1(C)CCN(C(=O)c2ccc(-c3ccccc3)cc2)C1 (stereo unspecified),inactive: 3.37%
11,Cc1ccccc1NS(=O)(=O)c1ccc2c(c1)n(C)c(=O)n2C,inactive: 9.77%
12,Cc1c(NC(=O)c2ncn[nH]2)cccc1-c1nc2ccccc2s1,inactive: 12.6%
13,COc1cc2[nH]c(C(=O)NCc3ccccc3)cc2c(OC)c1OC,inactive: 13.3%
14,O=[N+]([O-])c1cc(S(=O)(=O)N2CCOCC2)ccc1N1CCNCC1,inactive: 21%
15,CC1CCc2c(sc(NC(=O)CCCn3cnc([N+](=O)[O-])n3)c2C(N)=O)C1 (stereo unspecified),inactive: 14.8%
16,O=C1N=c2ccccc2=C1c1sc(=S)n(-c2ccc(O)cc2)c1O,inactive: 15.2%
17,Cc1ccc(C)c(-n2c(CNC(=O)c3ccco3)nnc2SCC(=O)N2CCc3ccccc32)c1,inactive: 24.9%
18,O=C(CSc1cn[nH]n1)Nc1ccc(O)c(C(=O)O)c1,inactive: 5.21%
19,CCOC(=O)c1c(C)n(C)c2cc(CN(C)C)c(O)c(S(=O)(=O)c3ccccc3)c12,inactive: 1.27%
20,O=C(O)CCc1nn2c3ccccc3n(CC(=O)O)c2nc1=O,inactive: -16.3%
21,O=C1CNC(=O)/C1=C\c1ccc(O)cc1,inactive: 13%
22,CC(OC(=O)C1CCC(=O)N1)C(=O)Nc1cc(Cl)cc(Cl)c1 (stereo unspecified),inactive: 3.89%

row,SMILES,growth rescue (activation)
1,COC(=O)C1=C(C)N(Cc2cccnc2)C(=O)/C1=C\c1sccc1C,inactive: 5.61%
2,O=C(c1ccco1)N1CCCN(Cc2nc(-c3ccc4c(c3)OCO4)no2)CC1,inactive: 6.52%
3,CCOc1cc(C(=S)N2CCOCC2)ccc1OS(=O)(=O)c1ccc(Br)cc1,inactive: 8.17%
4,O=C(N1CCCCC1)N1CCN(C(=O)N2CCCCC2)CC1,inactive: -18.7%
5,COc1ccc(C(CCNCc2ccccc2)c2ccc(F)cc2)cc1 (stereo unspecified),inactive: 16.2%
6,O=C(NCc1nc2ccccc2[nH]1)c1cccc(S(=O)(=O)N2CCCC2)c1,inactive: -14.9%
7,CCOC(=O)c1cnc(-n2nc(C)cc2C)nc1Oc1ccc(C#N)cc1,inactive: -5.45%
8,Cc1cccc(NC(=O)Cn2c(/C=C/c3ccccc3)nc3ccccc32)c1,inactive: 9.35%
9,CC1(C(=O)NS(=O)(=O)c2ccccc2Cl)CCN1C(=O)Cc1ccccc1Cl (stereo unspecified),inactive: 9.93%
10,CCOC(=O)c1ccc(N2C(=O)C(CC(=O)NC)N(CCc3ccc(OC)c(OC)c3)C2=S)cc1 (stereo unspecified),inactive: 21.5%
11,COc1cc2[nH]c(=O)n(CCC(=O)NCCCN3CCN(c4ccccc4F)CC3)c(=O)c2cc1OC,inactive: -4.68%
12,COc1cc(/C=N/N=C(\N)c2nonc2N)cc(OC)c1OC,inactive: -20.4%
13,N/C(=N\OCC(=O)Nc1ccc(F)c(Cl)c1)c1ccccc1,inactive: 20.6%
14,COc1ccc(C)cc1NC(=O)CCNC(=O)c1ccco1,inactive: -16.3%
15,Cc1ccc(S(=O)(=O)N(C)c2ccc(OC(=O)c3cccs3)cc2)cc1,inactive: -28.6%
16,COc1ccc(-c2nc(-c3cccs3)no2)cc1,inactive: -4.44%
17,O=C(Nc1ccc(C(=O)O)cc1)/C(=C\c1ccccc1)NC(=O)c1ccccc1,inactive: 4.89%
18,Cc1c(NC(=O)c2cccc(-c3cc4ccccc4oc3=O)c2)cccc1-c1nc2ncccc2o1,inactive: -10.7%
